Measured values published in publication PMC4336329 (PLoS ONE, 2015).
Screen size: about 310,000 compounds; about 14,000 (4.5%) showed an effect of 50% or more. Effects have a minus sign here. This is one part of the list.
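Note: peak tail current of the secondary pulse compared with the same well before compound.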

Each molecule was assayed against human ether-à-go-go-related gene (hERG) potassium channel (human, UniProt Q12809) (assay: primary screen, population patch clamp on CHO cells stably expressing hERG).
Sequence of human ether-à-go-go-related gene (hERG) potassium channel (Q12809 whole entry, looked up): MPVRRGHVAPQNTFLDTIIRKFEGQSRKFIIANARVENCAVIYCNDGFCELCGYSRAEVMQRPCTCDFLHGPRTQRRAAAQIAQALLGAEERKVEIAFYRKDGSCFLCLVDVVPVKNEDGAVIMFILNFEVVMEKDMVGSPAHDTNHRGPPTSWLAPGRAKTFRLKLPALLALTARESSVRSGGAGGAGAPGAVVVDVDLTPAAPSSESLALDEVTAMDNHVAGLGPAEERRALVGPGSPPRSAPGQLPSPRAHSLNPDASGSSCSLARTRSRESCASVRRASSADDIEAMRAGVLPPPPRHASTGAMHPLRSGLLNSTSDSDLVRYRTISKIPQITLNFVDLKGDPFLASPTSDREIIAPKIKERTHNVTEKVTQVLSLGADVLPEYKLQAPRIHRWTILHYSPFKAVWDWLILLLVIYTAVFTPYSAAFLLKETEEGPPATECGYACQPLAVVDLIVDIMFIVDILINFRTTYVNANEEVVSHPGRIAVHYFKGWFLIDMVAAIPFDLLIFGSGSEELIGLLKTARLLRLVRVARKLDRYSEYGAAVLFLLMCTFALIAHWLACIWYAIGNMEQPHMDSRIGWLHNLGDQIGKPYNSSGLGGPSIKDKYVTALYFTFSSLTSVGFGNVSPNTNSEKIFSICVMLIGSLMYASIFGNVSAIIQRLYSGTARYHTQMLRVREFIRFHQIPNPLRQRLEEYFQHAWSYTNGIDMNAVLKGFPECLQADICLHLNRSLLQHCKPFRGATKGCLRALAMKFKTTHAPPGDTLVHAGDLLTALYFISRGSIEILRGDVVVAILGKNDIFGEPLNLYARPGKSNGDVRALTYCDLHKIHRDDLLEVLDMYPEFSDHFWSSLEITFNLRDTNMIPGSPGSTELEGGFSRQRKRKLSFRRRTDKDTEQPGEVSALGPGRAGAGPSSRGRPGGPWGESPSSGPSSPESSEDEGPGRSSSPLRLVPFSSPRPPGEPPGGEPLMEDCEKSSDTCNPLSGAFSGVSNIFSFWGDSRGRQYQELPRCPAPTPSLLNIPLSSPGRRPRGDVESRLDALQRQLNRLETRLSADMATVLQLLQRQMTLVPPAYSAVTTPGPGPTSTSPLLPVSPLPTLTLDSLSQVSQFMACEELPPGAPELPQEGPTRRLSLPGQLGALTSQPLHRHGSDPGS
For `CCOc1ccc(NC(=S)NC(C)c2cccs2)cc1` (stereo not drawn), the “hERG current change (%, negative = inhibition) at 10uM” value was 14.1%. With `CN1C2=CC=CC=CC2=[N+](C)C12C([N+](=O)[O-])=CC(=[N+]([O-])[O-])C=C2[N+](=O)[O-]` (stereo not drawn) the “hERG current change (%, negative = inhibition) at 10uM” value was 9.42%. `CCN(CC)C(=O)CN(C)S(=O)(=O)c1cccc2nsnc12` was tested, and the “hERG current change (%, negative = inhibition) at 10uM” value was 12.2%. For `CC1(C)OC(=O)C(=NNc2ccccc2)C(=O)O1`, the “hERG current change (%, negative = inhibition) at 10uM” value was 30.1%. With `COc1ccc(Br)c(C(=O)Nc2nc3ccccc3[nH]2)c1` the “hERG current change (%, negative = inhibition) at 10uM” value was 19.8%. In the case of `CCOC(=O)C(=O)Nc1ccc(S(=O)(=O)Nc2ncccn2)cc1`, the “hERG current change (%, negative = inhibition) at 10uM” value is reported as 2.41%. In the case of `O=C(Nc1ccccc1C(F)(F)F)c1ccc(F)c(S(=O)(=O)N2CCOCC2)c1`, the “hERG current change (%, negative = inhibition) at 10uM” value is reported as 0.595%. In the case of `COc1ccc(-c2nc3ccccc3c(=O)n2-c2cccnc2)cc1`, the “hERG current change (%, negative = inhibition) at 10uM” value is reported as -8.9%. In the case of `Cc1sc2ncn(-c3ccccc3)c(=O)c2c1C`, the “hERG current change (%, negative = inhibition) at 10uM” value is reported as 11.5%. For `O=C(NCc1ccco1)C1CCCN1C(=O)Nc1cccc(Cl)c1` (stereo not drawn), the “hERG current change (%, negative = inhibition) at 10uM” value was 12.5%. In the case of `Cc1ccc(NC(=O)c2ccccc2)cc1-n1cnnn1`, the “hERG current change (%, negative = inhibition) at 10uM” value is reported as -6.74%. In the case of `O=C(CN1CCOCC1)N/N=C/c1cccc2ccccc12`, the “hERG current change (%, negative = inhibition) at 10uM” value is reported as 16.7%. With `COc1ccccc1N1CCN(C(=S)Nc2ccccc2)CC1` the “hERG current change (%, negative = inhibition) at 10uM” value was 7.35%. With `CC(C)n1nc(C(=O)N2CCN(S(=O)(=O)c3cccs3)CC2)c2ccccc2c1=O` the “hERG current change (%, negative = inhibition) at 10uM” value was -28.7%. In the case of `O=C(CCl)NC(Cc1c[nH]c2ccc(OCc3ccccc3)cc12)C(=O)O` (stereo not drawn), the “hERG current change (%, negative = inhibition) at 10uM” value is reported as 15.4%. For `COc1ccc(-c2nc(SCc3ccccc3)n(S(C)(=O)=O)n2)cc1`, the “hERG current change (%, negative = inhibition) at 10uM” value was -12.8%. In the case of `Cc1ccc(C2C(C#N)=C(N)Oc3n[nH]c(-c4cccs4)c32)cc1` (stereo not drawn), the “hERG current change (%, negative = inhibition) at 10uM” value is reported as 22.3%. For `Cc1cc(C)c(C2C3=C(Nc4c2c(C)nn4-c2ccccn2)c2ccccc2C3=O)c(C)c1` (stereo not drawn), the “hERG current change (%, negative = inhibition) at 10uM” value was -0.0144%. `N#C/C(=C\c1cccnc1)C(=O)Nc1ccc(C(=O)O)cc1` was tested, and the “hERG current change (%, negative = inhibition) at 10uM” value was 6.25%. `COCCN(C(=O)c1ccc(C)o1)c1c(N)n(CC(C)C)c(=O)[nH]c1=O` was tested, and the “hERG current change (%, negative = inhibition) at 10uM” value was -43.6%. For `CCCc1cc(Nc2ccccc2)n2ncnc2n1`, the “hERG current change (%, negative = inhibition) at 10uM” value was 2.69%. With `COc1cccc(/C=C/C(=O)c2ccc3c(c2)OCCO3)c1OC` the “hERG current change (%, negative = inhibition) at 10uM” value was 7.09%. `Nc1cc(C(=O)OCC(=O)N2CCOCC2)ccc1Cl` was tested, and the “hERG current change (%, negative = inhibition) at 10uM” value was 17.8%. In the case of `Cc1cc(C)c2cc(C(=O)N3CCc4ccccc4C3)[nH]c2c1`, the “hERG current change (%, negative = inhibition) at 10uM” value is reported as 4.18%. For `CN1CCN(C(=O)C2CCCN(S(=O)(=O)c3ccc(F)cc3)C2)CC1` (stereo not drawn), the “hERG current change (%, negative = inhibition) at 10uM” value was 19.9%. In the case of `Cc1ccc(C)c(NP(=O)(Oc2ccccc2)Oc2ccccc2)c1`, the “hERG current change (%, negative = inhibition) at 10uM” value is reported as 21.3%. `Cn1c(SCCN2CCCCC2)nnc1-c1ccccc1Br.O=C(O)C(=O)O` was tested, and the “hERG current change (%, negative = inhibition) at 10uM” value was 4.79%. `COCCNC(=O)CSc1nnc2c(Cl)cc(Cl)cn12` was tested, and the “hERG current change (%, negative = inhibition) at 10uM” value was -4.17%. For `COC(=O)C1CCN(c2ccc(Cl)nn2)CC1`, the “hERG current change (%, negative = inhibition) at 10uM” value was 20.9%. `CC(C)(C)NC(=S)NNC(=O)c1ccncc1` was tested, and the “hERG current change (%, negative = inhibition) at 10uM” value was 15.4%. `O=C(CNS(=O)(=O)c1ccc(Br)s1)N1CCN(c2ccc(F)cc2)CC1` was tested, and the “hERG current change (%, negative = inhibition) at 10uM” value was -25.2%. With `O=C1Nc2ccccc2/C1=N\N=C\c1ccc(O)c(O)c1` the “hERG current change (%, negative = inhibition) at 10uM” value was -3.02%. With `CO/N=C/C(NC(=O)c1ccc(C(F)(F)F)cc1)C(=O)OC` (stereo not drawn) the “hERG current change (%, negative = inhibition) at 10uM” value was 7.62%. For `CCOC(=O)CC(=O)CSc1nc2c(cc1C#N)CCCCC2`, the “hERG current change (%, negative = inhibition) at 10uM” value was 15.7%. For `Clc1ccc(-c2nc3ccccc3[nH]2)cn1`, the “hERG current change (%, negative = inhibition) at 10uM” value was 18.3%. With `CCO.Cn1c2c(c(=O)n(C)c1=O)C1(C(=O)Nc3ccccc31)C(C#N)=C(N)O2` (stereo not drawn) the “hERG current change (%, negative = inhibition) at 10uM” value was 8.3%. With `Cn1c(=O)n(C)c2cc(S(=O)(=O)N3CCCc4ccccc43)ccc21` the “hERG current change (%, negative = inhibition) at 10uM” value was -26.4%. With `CCOC(=O)N1CCN(C(=O)c2ccc3nc(C)sc3c2)CC1` the “hERG current change (%, negative = inhibition) at 10uM” value was 23.6%. With `CSc1ccc(C2NC(=O)c3c(sc4c3CCN(C)C4)N2)cc1` (stereo not drawn) the “hERG current change (%, negative = inhibition) at 10uM” value was -60.6%. In the case of `Cc1cccc(N2C(=S)NC3c4ccccc4OC2(C)C3C(=O)N(C)C)c1` (stereo not drawn), the “hERG current change (%, negative = inhibition) at 10uM” value is reported as 8.88%. With `CNC(=O)c1[nH]cnc1C(=O)N[C@@H](Cc1ccccc1)C(=O)OCc1ccccc1` the “hERG current change (%, negative = inhibition) at 10uM” value was 3.76%. For `COc1ccc(C2N(c3ccc4c(c3)OCCO4)C(=O)C2(F)F)cc1OC` (stereo not drawn), the “hERG current change (%, negative = inhibition) at 10uM” value was -8.22%. In the case of `CC(C)c1ccc(NC(=O)CNS(=O)(=O)c2ccc(F)cc2)cc1`, the “hERG current change (%, negative = inhibition) at 10uM” value is reported as 3.89%. With `C=C1CCN([C@@H](CC(C)C)C(=O)O)S(=O)(=O)c2ccccc21` the “hERG current change (%, negative = inhibition) at 10uM” value was 22.6%. `CC1CCc2c(sc(/N=C/c3cccnc3)c2C(N)=O)C1` (stereo not drawn) was tested, and the “hERG current change (%, negative = inhibition) at 10uM” value was 10.8%. For `CC(C)CN(C(=O)COC(=O)c1ccc2c(c1)NC(=O)CS2)C1CCS(=O)(=O)C1` (stereo not drawn), the “hERG current change (%, negative = inhibition) at 10uM” value was 13.1%. With `Cc1ccc(C(=O)N/C(=C/c2cccc([N+](=O)[O-])c2)C(=O)NCC2CCCO2)cc1` (stereo not drawn) the “hERG current change (%, negative = inhibition) at 10uM” value was -68.4%. With `COc1ccc(-c2nc(-c3ccccn3)ncc2S(C)(=O)=O)cc1` the “hERG current change (%, negative = inhibition) at 10uM” value was -7.31%. For `COc1ccc(CNC(=O)CNC(=O)[C@@H]2Cc3ccccc3CN2)cc1`, the “hERG current change (%, negative = inhibition) at 10uM” value was 17.4%. For `CC(C)Cn1c(N)c(C(=O)NCCN2CCOCC2)c2nc3ccccc3nc21`, the “hERG current change (%, negative = inhibition) at 10uM” value was -72.7%. In the case of `COc1ccccc1-n1c(-c2cn(C)nc2C)n[nH]c1=S`, the “hERG current change (%, negative = inhibition) at 10uM” value is reported as 18.4%. `COP(=O)(OC)C(O)C(Cl)(Cl)Cl` (stereo not drawn) was tested, and the “hERG current change (%, negative = inhibition) at 10uM” value was 22.7%. `CCCCC/C=C/C1=CC(=O)C[C@H](c2ccc3c(c2)OCO3)C1` was tested, and the “hERG current change (%, negative = inhibition) at 10uM” value was -14.7%. `CCN1C(=O)[C@H]2[C@@H](c3ccc(-c4cccc(Cl)c4)cc3)N[C@@](Cc3ccccc3)(C(=O)OC)[C@H]2C1=O.O=C(O)C(F)(F)F` was tested, and the “hERG current change (%, negative = inhibition) at 10uM” value was 8.35%. With `COc1cccc(CNC(=O)CCNS(=O)(=O)c2ccc(Br)s2)c1` the “hERG current change (%, negative = inhibition) at 10uM” value was -10.2%. In the case of `O=C(/C=C/c1ccc(N2CCOCC2)cc1)c1ccccc1`, the “hERG current change (%, negative = inhibition) at 10uM” value is reported as -1.16%. For `Cc1ccc(-c2[nH]nc(N)c2N=Nc2ccccc2C)cc1`, the “hERG current change (%, negative = inhibition) at 10uM” value was 14.9%.
